For 57 molecules, gametocyte viability results are on record in the supplement of paper PMC12297408.

Molecules are shown by their SMILES. Where a name gives a salt, the structure may show the parent alone. Screen size: about 1,300 compounds; about 40 (3%) showed activity. The list shows a part of the results.

In this assay the test system is Plasmodium falciparum NF54/iGP1_RE9H ulg8 stage V gametocytes. Put plainly: gametocyte viability (luciferase signal relative to DMSO control) (% of DMSO control); higher = less gametocytocidal activity, active = 50 or less. Conditions: exposure time: 72 h. The procedure, abridged: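 Compounds from 10 mM DMSO stocks were spotted at nanolitre scale into 96-well plates, and day-12 stage V NF54/iGP1_RE9Hulg8 gametocytes (~2.5% gametocytemia, 3% hematocrit; medium with 0.5% Albumax II) were added to reach 10 µM or 1 µM, one well per concentration. The plates were kept at 37 °C for 72 h. Luminescence was then read on an IVIS Lumina II after mixing 90 µl of culture with 10 µl D-luciferin (30 mg/ml). Viability values are relative to the plate's mean DMSO vehicle signal.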

For the molecule `NC(Cc1cc(I)c(Oc2cc(I)c(O)c(I)c2)c(I)c1)C(=O)O` (centres undefined) [Thyroxine (L)], the gametocyte viability reads like this: (concentration: 1 µM) inactive: 80.3; (concentration: 10 µM) inactive: 84.2.

Turning to `CN(C)CCOC(c1ccccc1)c1ccccc1` [Diphenhydramine hydrochloride], the gametocyte viability (concentration: 1 µM) was inactive: 91.2 and the gametocyte viability (concentration: 10 µM) is inactive: 92.6.

`COc1ccc2[nH]c([S+]([O-])Cc3ncc(C)c(OC)c3C)nc2n1` (centres undefined) [Tenatoprazole]: the gametocyte viability was inactive: 90.8 (concentration: 1 µM) and inactive: 79.8 (concentration: 10 µM).

Consider `Oc1ncnc2[nH]ncc12` [Allopurinol], for which the gametocyte viability by setting is: (concentration: 1 µM) inactive: 80.4; (concentration: 10 µM) inactive: 84.1.

Take `CNCCCC1c2ccccc2C=Cc2ccccc21` [Protriptyline hydrochloride]: the gametocyte viability was inactive: 82.3 (concentration: 1 µM) and inactive: 82.5 (concentration: 10 µM).

For the molecule `CCCCCCC[N+](CC)(CC)CCCCc1ccc(Cl)cc1` [Clofilium tosylate], the gametocyte viability by setting is: (concentration: 1 µM) inactive: 97.3; (concentration: 10 µM) active: 47.8.

With `C[C@]12CCC(=O)C=C1CC[C@@H]1[C@@H]2[C@@H](O)C[C@@]2(C)[C@H]1CC[C@]2(O)C(=O)CO` [Hydrocortisone base], the gametocyte viability is, setting by setting: (concentration: 1 µM) inactive: 91.6; (concentration: 10 µM) inactive: 94.7.

Turning to `CCCc1cc(=O)[nH]c(=S)[nH]1` [Propylthiouracil], the gametocyte viability is, setting by setting: (concentration: 1 µM) inactive: 91.1; (concentration: 10 µM) inactive: 86.6.

As to `COc1ccc(CCN(C)CCCC(C#N)(c2ccc(OC)c(OC)c2)C(C)C)cc1OC` (centres undefined) [Verapamil hydrochloride], the gametocyte viability runs as follows: (concentration: 1 µM) inactive: 91.8; (concentration: 10 µM) inactive: 99.3.

`Cc1onc(-c2ccccc2)c1-c1ccc(S(N)(=O)=O)cc1` [Valdecoxib]: the gametocyte viability runs as follows: (concentration: 1 µM) inactive: 81.3; (concentration: 10 µM) inactive: 77.3.

Regarding `C[N+]1(CCCCC[N+]2(C)CCCC2)CCCC1` [Pentolinium bitartrate], the gametocyte viability by setting is: (concentration: 1 µM) inactive: 93.5; (concentration: 10 µM) inactive: 96.4.

Consider `CN(N=O)C(=O)N[C@H]1C(O)O[C@H](CO)[C@@H](O)[C@@H]1O` (mixture of isomers) [Streptozotocin], for which the gametocyte viability (concentration: 1 µM) is inactive: 84.7 and the gametocyte viability (concentration: 10 µM) was inactive: 92.1.

Regarding `CCCCC(=O)O[C@H]1CC[C@H]2[C@@H]3CCc4cc(O)ccc4[C@H]3CC[C@]12C` [Estradiol Valerate], the gametocyte viability is, setting by setting: (concentration: 1 µM) inactive: 87.7; (concentration: 10 µM) inactive: 80.2.

For `Cn1c(NCCN(CCO)CCCc2ccc([N+](=O)[O-])cc2)cc(=O)n(C)c1=O` [Nifekalant], the gametocyte viability was inactive: 76.8 (concentration: 1 µM) and inactive: 64.7 (concentration: 10 µM).

`N=C(N)c1ccc(OCCCCCOc2ccc(C(=N)N)cc2)cc1` [Pentamidine isethionate]: the gametocyte viability is inactive: 86.2 (concentration: 1 µM) and inactive: 77.7 (concentration: 10 µM).

As to `Fc1ccc(C(c2ccc(F)cc2)N2CCN(C/C=C/c3ccccc3)CC2)cc1` [Flunarizine dihydrochloride], the gametocyte viability is, setting by setting: (concentration: 1 µM) inactive: 81.5; (concentration: 10 µM) inactive: 95.1.

On to `CN1CCc2c(c3ccccc3n2Cc2ccccc2)C1` [Mebhydroline 1,5-naphtalenedisulfonate], for which the gametocyte viability (concentration: 1 µM) was inactive: 88.8 and the gametocyte viability (concentration: 10 µM) was inactive: 83.3.

Turning to `Nc1nc(Cl)nc2c1ncn2[C@H]1C[C@H](O)[C@@H](CO)O1` [Cladribine], the gametocyte viability runs as follows: (concentration: 1 µM) inactive: 82.9; (concentration: 10 µM) inactive: 85.7.

`CN[C@@H]1[C@H](O[C@H]2[C@H](O[C@H]3[C@H](O)[C@@H](O)[C@H](N=C(N)N)[C@@H](O)[C@@H]3N=C(N)N)O[C@@H](C)[C@]2(O)C=O)O[C@@H](CO)[C@H](O)[C@H]1O` [Streptomycin sulfate]: the gametocyte viability is inactive: 82.2 (concentration: 1 µM) and inactive: 84.8 (concentration: 10 µM).

For the molecule `OCCOCCN1CCN(C2=Nc3ccccc3Sc3ccccc32)CC1` [Quetiapine], the gametocyte viability is, setting by setting: (concentration: 1 µM) inactive: 90.5; (concentration: 10 µM) inactive: 78.8.

Turning to `CC1(C)S[C@@H]2[C@H](NC(=O)[C@H](N)c3ccc(O)cc3)C(=O)N2[C@H]1C(=O)O` [Amoxicillin], the gametocyte viability by setting is: (concentration: 1 µM) inactive: 80.6; (concentration: 10 µM) inactive: 82.5.

As to `COc1cccc2c1C(=O)c1c(O)c3c(c(O)c1C2=O)C[C@@](O)(C(=O)CO)C[C@@H]3O[C@H]1C[C@H](N)[C@H](O)[C@H](C)O1` [Doxorubicin hydrochloride], the gametocyte viability runs as follows: (concentration: 1 µM) inactive: 64.5; (concentration: 10 µM) active: 19.

For the molecule `CCC(=O)O[C@@H](O[P@](=O)(CCCCc1ccccc1)CC(=O)N1C[C@H](C2CCCCC2)C[C@H]1C(=O)O)C(C)C` [Fosinopril], the gametocyte viability is inactive: 82.1 (concentration: 1 µM) and inactive: 83.2 (concentration: 10 µM).

Consider `Cc1cc2c(cc1S(N)(=O)=O)S(=O)(=O)CCC2` [Meticrane], for which the gametocyte viability reads like this: (concentration: 1 µM) inactive: 88.7; (concentration: 10 µM) inactive: 83.8.

As for `NCCNCCNCCNCCN` [Tetraethylenepentamine pentahydrochloride], the gametocyte viability runs as follows: (concentration: 1 µM) inactive: 97.2; (concentration: 10 µM) inactive: 94.6.

Take `CC(C)c1ccc2oc3nc(N)c(C(=O)O)cc3c(=O)c2c1` [Amlexanox]: the gametocyte viability was inactive: 80 (concentration: 1 µM) and inactive: 81.5 (concentration: 10 µM).

With `CC1(C)S[C@@H]2[C@H](NC(=O)[C@H](NC(=O)N3CCNC3=O)c3ccccc3)C(=O)N2[C@H]1C(=O)O` [Azlocillin sodium salt], the gametocyte viability is inactive: 87.1 (concentration: 1 µM) and inactive: 85.9 (concentration: 10 µM).

Consider `COC(=O)Nc1nc2cc(C(=O)c3ccccc3)ccc2[nH]1` [Mebendazole], for which the gametocyte viability was inactive: 90.9 (concentration: 1 µM) and inactive: 100 (concentration: 10 µM).

Take `O=C(O)c1cccnc1Nc1cccc(C(F)(F)F)c1` [Niflumic acid]: the gametocyte viability by setting is: (concentration: 1 µM) inactive: 86.5; (concentration: 10 µM) inactive: 81.3.

Regarding `Cc1oncc1C(=O)Nc1ccc(C(F)(F)F)cc1` [Leflunomide], the gametocyte viability (concentration: 1 µM) was inactive: 76.5 and the gametocyte viability (concentration: 10 µM) is inactive: 79.8.

Consider `COc1ccc(C(Cl)=C(c2ccc(OC)cc2)c2ccc(OC)cc2)cc1` [Chlorotrianisene], for which the gametocyte viability by setting is: (concentration: 1 µM) inactive: 91.8; (concentration: 10 µM) inactive: 81.4.

For the molecule `CCOC(=O)[C@H](CCc1ccccc1)N[C@@H](C)C(=O)N1Cc2ccccc2C[C@H]1C(=O)O` [Quinapril HCl], the gametocyte viability is, setting by setting: (concentration: 1 µM) inactive: 98.4; (concentration: 10 µM) inactive: 98.4.

In the case of `CC(CCc1ccccc1)NCC(O)c1ccc(O)c(C(N)=O)c1` (centres undefined) [Labetalol hydrochloride], the gametocyte viability was inactive: 96.5 (concentration: 1 µM) and inactive: 94.4 (concentration: 10 µM).

As for `Cc1onc(-c2c(Cl)cccc2Cl)c1C(=O)N[C@@H]1C(=O)N2[C@@H]1SC(C)(C)[C@@H]2C(=O)O` [Dicloxacillin sodium salt hydrate], the gametocyte viability by setting is: (concentration: 1 µM) inactive: 89.9; (concentration: 10 µM) inactive: 84.8.

As for `CN1C(C)(C)CCCC1(C)C` [Pempidine tartrate], the gametocyte viability was inactive: 99.3 (concentration: 1 µM) and inactive: 97.1 (concentration: 10 µM).

Take `CC[N+](C)(C)Cc1ccccc1Br` [Bretylium tosylate]: the gametocyte viability (concentration: 1 µM) was inactive: 100 and the gametocyte viability (concentration: 10 µM) was inactive: 100.

For `C[N+](C)(C)CCCCCC[N+](C)(C)C` [Hexamethonium dibromide dihydrate], the gametocyte viability (concentration: 1 µM) was inactive: 87.5 and the gametocyte viability (concentration: 10 µM) was inactive: 93.5.

For `CN(C)/N=N/c1[nH]cnc1C(N)=O` [Dacarbazine], the gametocyte viability is inactive: 87.7 (concentration: 1 µM) and inactive: 90.7 (concentration: 10 µM).

For the molecule `COc1ccc([C@@H]2CC(=O)c3c(O)cc(O[C@@H]4O[C@H](CO[C@@H]5O[C@@H](C)[C@H](O)[C@@H](O)[C@H]5O)[C@@H](O)[C@H](O)[C@H]4O)cc3O2)cc1O` [Hesperidin], the gametocyte viability is inactive: 78.3 (concentration: 1 µM) and inactive: 85.2 (concentration: 10 µM).

With `CC(C)(C(=O)O)c1ccc(C(O)CCCN2CCC(C(O)(c3ccccc3)c3ccccc3)CC2)cc1` (centres undefined) [Fexofenadine HCl], the gametocyte viability is, setting by setting: (concentration: 1 µM) inactive: 83.4; (concentration: 10 µM) inactive: 82.4.

As for `NS(=O)(=O)c1cc(C(=O)O)cc(N2CCCC2)c1Oc1ccccc1` [Piretanide], the gametocyte viability is inactive: 85.9 (concentration: 1 µM) and inactive: 86.9 (concentration: 10 µM).

For the molecule `Cc1cc(C(C)(C)C)c(O)c(C)c1CC1=NCCN1` [Oxymetazoline hydrochloride], the gametocyte viability (concentration: 1 µM) was inactive: 89.6 and the gametocyte viability (concentration: 10 µM) was inactive: 90.7.

Consider `CN(C)CCCN1c2ccccc2Sc2ccccc21` [Promazine hydrochloride], for which the gametocyte viability runs as follows: (concentration: 1 µM) inactive: 95.7; (concentration: 10 µM) inactive: 96.8.

Turning to `CC(C(=O)O)c1ccc2c(c1)Cc1cccnc1O2` (centres undefined) [Pranoprofen], the gametocyte viability by setting is: (concentration: 1 µM) inactive: 93.6; (concentration: 10 µM) inactive: 94.8.

Consider `CSc1ccc2c(c1)C(N1CCN(C)CC1)Cc1ccccc1S2` (centres undefined) [Methiothepin maleate], for which the gametocyte viability by setting is: (concentration: 1 µM) inactive: 86.1; (concentration: 10 µM) inactive: 75.3.

With `Cc1c(C)c2c(c(C)c1O)CCC(C)(COc1ccc(CC3SC(=O)NC3=O)cc1)O2` (centres undefined) [Troglitazone], the gametocyte viability is, setting by setting: (concentration: 1 µM) inactive: 81.7; (concentration: 10 µM) inactive: 76.3.

For `COC(c1ccccc1)(c1ccccc1)[C@H](Oc1nc(C)cc(C)n1)C(=O)O` [Ambrisentan], the gametocyte viability was inactive: 80.3 (concentration: 1 µM) and inactive: 85.6 (concentration: 10 µM).

Take `COc1ccc2c(c1)c(CC(=O)O)c(C)n2C(=O)c1ccc(Cl)cc1` [Indomethacin]: the gametocyte viability was inactive: 89 (concentration: 1 µM) and inactive: 93.3 (concentration: 10 µM).

Consider `CN1CCC(=C2c3ccccc3CCc3cccnc32)CC1` [Azatadine maleate], for which the gametocyte viability is inactive: 79.7 (concentration: 1 µM) and inactive: 80.8 (concentration: 10 µM).

With `Nc1nc2ccc(OC(F)(F)F)cc2s1` [Riluzole hydrochloride], the gametocyte viability is inactive: 88.4 (concentration: 1 µM) and inactive: 81.5 (concentration: 10 µM).

As to `C(=C\c1ccccc1)/CN1CCN(C(c2ccccc2)c2ccccc2)CC1` [Cinnarizine], the gametocyte viability reads like this: (concentration: 1 µM) inactive: 87; (concentration: 10 µM) inactive: 85.1.

In the case of `O=C(C1CCCCC1)N1CC(=O)N2CCc3ccccc3C2C1` (centres undefined) [Praziquantel], the gametocyte viability runs as follows: (concentration: 1 µM) inactive: 92.8; (concentration: 10 µM) inactive: 76.4.

Consider `CC(=O)NCCCS(=O)(=O)O` [Acamprosate calcium], for which the gametocyte viability runs as follows: (concentration: 1 µM) inactive: 80.4; (concentration: 10 µM) inactive: 79.8.

Take `CCOC(=O)O[C@]1(C(=O)COC(=O)CC)CC[C@H]2[C@@H]3CCC4=CC(=O)C=C[C@]4(C)[C@H]3[C@@H](O)C[C@@]21C` [Prednicarbate]: the gametocyte viability is, setting by setting: (concentration: 1 µM) inactive: 91.7; (concentration: 10 µM) inactive: 90.6.

`CC(C)(C)NCC(O)COc1cccc2c1CCC(=O)N2` (centres undefined) [Carteolol hydrochloride]: the gametocyte viability by setting is: (concentration: 1 µM) inactive: 87.2; (concentration: 10 µM) inactive: 84.

`CN(C)CCN1C(=O)c2ccccc2N(C)c2ccccc21` [Dibenzepine hydrochloride]: the gametocyte viability is, setting by setting: (concentration: 1 µM) inactive: 84.8; (concentration: 10 µM) inactive: 91.3.

For the molecule `COc1ccc(OC)c(C(O)CNC(=O)CN)c1` (centres undefined) [Midodrine hydrochloride], the gametocyte viability is inactive: 82.8 (concentration: 1 µM) and inactive: 88.6 (concentration: 10 µM).
